Laboratory results published in PMC10017364.
No constants are given. Whether binding was seen depends on the method and setting. In cells and extracts the contact can be indirect.

Experiments:
[1] = biological target: HA- and FLAG-tagged EGFR (HA-EGFR-FLAG) (human) (UniProt P00533); experiment: co-IP; lysates of HEK293T cells expressing FLAG-tagged proteins incubated with anti-FLAG M2 agarose beads overnight at 4 °C; eluted with FLAG peptides; bound proteins by immunoblotting
[2] = biological target: EGFR bearing an EGFP and a biotin acceptor peptide (Bio tag) at its C-terminus (EGFR-EGFP-Bio), full length (human) (UniProt P00533); experiment: pull-down; streptavidin pull-down: lysates of HEK293T cells coexpressing HA-BirA and the EGFP-Bio-tagged EGFR construct incubated with Dynabeads M-280 Streptavidin overnight at 4 °C; lysis buffer 110 mM potassium acetate, 20 mM Hepes pH 7.2, 2 mM magnesium acetate, 0.5% Triton X-100, 1 mM DTT; bound proteins by immunoblotting

Row | binding [1] | binding [2] | Binder
1 | no binding | – | ERGIC53 (protein, UniProt P49257 31-510) DGVGGDPAVALPHRRFEYKYSFKGPHLVQSDGTVPFWAHAGNAIPSSDQIRVAPSLKSQRGSVWTKTKAAFENWEVEVTFRVTGRGRIGADGLAIWYAENQGLEGPVFGSADLWNGVGIFFDSFDNDGKKNNPAIVIIGNNGQIHYDHQNDGASQALASCQRDFRNKPYPVRAKITYYQNTLTVMINNGFTPDKNDYEFCAKVENMIIPAQGHFGISAATGGLADDHDVLSFLTFQLTEPGKEPPTPDKEISEKEKEKYQEEFEHFQQELDKKKEEFQKGHPDLQGQPAEEIFESVGDRELRQVFEGQNRIHLEIKQLNRQLDMILDEQRRYVSSLTEEISKRGAGMPGQHGQITQQELDTVVKTQHEILRQVNEMKNSMSETVRLVSGMQHPGSAGGVYETTQHFIDIKEHLHIVKRDIDNLVQRNMPSNEKPKCPELPPFPSCLSTVHFIIFVVVQTVLFIGYIMYRSQQEAAAKKFF
2 | – | no binding | delta subunit of the adaptor complex-3 (AP3δ1) (protein, UniProt O14617 1-1153) MALKMVKGSIDRMFDKNLQDLVRGIRNHKEDEAKYISQCIDEIKQELKQDNIAVKANAVCKLTYLQMLGYDISWAAFNIIEVMSASKFTFKRIGYLAASQSFHEGTDVIMLTTNQIRKDLSSPSQYDTGVALTGLSCFVTPDLARDLANDIMTLMSHTKPYIRKKAVLIMYKVFLKYPESLRPAFPRLKEKLEDPDPGVQSAAVNVICELARRNPKNYLSLAPLFFKLMTSSTNNWVLIKIIKLFGALTPLEPRLGKKLIEPLTNLIHSTSAMSLLYECVNTVIAVLISLSSGMPNHSASIQLCVQKLRILIEDSDQNLKYLGLLAMSKILKTHPKSVQSHKDLILQCLDDKDESIRLRALDLLYGMVSKKNLMEIVKKLMTHVDKAEGTTYRDELLTKIIDICSQSNYQYITNFEWYISILVELTRLEGTRHGHLIAAQMLDVAIRVKAIRKFAVSQMSALLDSAHLLASSTQRNGICEVLYAAAWICGEFSEHLQEPHHTLEAMLRPRVTTLPGHIQAVYVQNVVKLYASILQQKEQAGEAEGAQAVTQLMVDRLPQFVQSADLEVQERASCILQLVKHIQKLQAKDVPVAEEVSALFAGELNPVAPKAQKKVPVPEGLDLDAWINEPLSDSESEDERPRAVFHEEEQRRPKHRPSEADEEELARRREARKQEQANNPFYIKSSPSPQKRYQDTPGVEHIPVVQIDLSVPLKVPGLPMSDQYVKLEEERRHRQKLEKDKRRKKRKEKEKKGKRRHSSLPTESDEDIAPAQQVDIVTEEMPENALPSDEDDKDPNDPYRALDIDLDKPLADSEKLPIQKHRNTETSKSPEKDVPMVEKKSKKPKKKEKKHKEKERDKEKKKEKEKKKSPKPKKKKHRKEKEERTKGKKKSKKQPPGSEEAAGEPVQNGAPEEEQLPPESSYSLLAENSYVKMTCDIRGSLQEDSQVTVAIVLENRSSSILKGMELSVLDSLNARMARPQGSSVHDGVPVPFQLPPGVSNEAQYVFTIQSIVMAQKLKGTLSFIAKNDEGATHEKLDFRLHFSCSSYLITTPCYSDAFAKLLESGDLSMSSIKVDGIRMSFQNLLAKICFHHHFSVVERVDSCASMYSRSIQGHHVCLLVKKGENSVSVDGKCSDSTLLSNLLEEMKATLAKC
